Out of some 110,000 compounds screened, about 230 (0.21%) showed an effect of 50% or more. The list shows a part of the results.
biological target: DPAP1 (Plasmodium falciparum, UniProt Q8IIJ9); assay: primary screen, percent inhibition; read by cleavage of a fluorogenic dipeptide substrate; higher = more effect of the substance; design: species or system P. falciparum D10 trophozoite lysates; single well
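Also: 30 min substrate incubation versus DMSO and 10 µM JCP410 controls.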

Sequence of DPAP1 (Q8IIJ9 whole entry, looked up): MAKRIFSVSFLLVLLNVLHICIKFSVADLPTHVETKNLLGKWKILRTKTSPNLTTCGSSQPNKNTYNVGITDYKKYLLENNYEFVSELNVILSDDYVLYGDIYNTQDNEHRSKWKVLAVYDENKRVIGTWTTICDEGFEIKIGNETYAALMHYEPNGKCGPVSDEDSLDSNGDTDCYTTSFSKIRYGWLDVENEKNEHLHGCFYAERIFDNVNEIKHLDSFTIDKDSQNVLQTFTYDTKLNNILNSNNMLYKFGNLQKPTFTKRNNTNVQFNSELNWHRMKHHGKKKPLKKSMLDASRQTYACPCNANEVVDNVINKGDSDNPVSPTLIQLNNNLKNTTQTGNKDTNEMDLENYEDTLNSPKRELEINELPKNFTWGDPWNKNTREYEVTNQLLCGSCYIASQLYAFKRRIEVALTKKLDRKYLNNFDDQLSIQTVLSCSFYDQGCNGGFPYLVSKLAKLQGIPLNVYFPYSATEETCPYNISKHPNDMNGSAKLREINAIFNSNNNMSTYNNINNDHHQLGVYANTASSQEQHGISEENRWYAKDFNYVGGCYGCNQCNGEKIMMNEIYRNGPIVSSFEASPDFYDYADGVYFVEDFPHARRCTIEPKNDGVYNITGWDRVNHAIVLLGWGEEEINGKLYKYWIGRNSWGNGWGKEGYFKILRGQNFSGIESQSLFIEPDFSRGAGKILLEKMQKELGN

Point of comparison: `COC(=O)c1ccccc1-c1ccc(/C=C2/C(=N)N3N=C(C(F)(F)F)SC3=NC2=O)o1`, “% Inhibition @ 10 uM” value 4.01%. Against it:
- CC(C)Cn1cc(NC(=O)N2CCN(c3ccccn3)CC2)c2ccccc2c1=O — higher, 4.42%
- CCOC(=O)NCc1ccc2[nH]c(C)cc2c1 — lower, -1.89%
- COC(=O)C1=C(C)N(CCc2ccc(OC)cc2)C(=O)/C1=C\c1cc(C)n(-c2ccc(F)cc2)c1C — lower, 1.63%
- OC1=C2C(=Nc3ncnn3C2c2ccc(F)c(Br)c2)CCC1 (stereo not drawn) — lower, -1.62%
- O=C1c2cccnc2C(=O)N1Cc1ccco1 — lower, 0.66%
- Cc1cnc(NC(=O)c2cn(-c3ccccc3)nc2-c2ccccc2)s1 — lower, -2.84%
- CN(C)CCCNC(=O)/C(=C\c1ccco1)NC(=O)c1ccccc1 — lower, 2.59%
- O=C(O)CCC(=O)N1N=C(c2cccs2)CC1c1ccccc1 (stereo not drawn) — lower, -10.8%
- O=C1NCCCC[C@@H]1Nc1ncccn1 — lower, -2.97%
- COc1ccc(N2C(N)=C(C#N)C(c3ccc(OC)c(OC)c3)C3=C2CCCC3=O)cc1 (stereo not drawn) — higher, 5.9%
- O=C(C1CC(c2ccccc2F)=NO1)N1CCOCC1 (stereo not drawn) — lower, 2.85%
- CN(CC(=O)NCCc1ccc(Cl)cc1)S(=O)(=O)c1ccc2[nH]c(-c3ccccc3)nc2c1 — lower, -2.57%
- CCOc1ccc(/C=C/c2nc(C#N)c(NCc3ccc(C)cc3)o2)cc1 — lower, -6.29%
- Cc1ccc(C)c(-c2csc(Nc3cccc(C(F)(F)F)c3)n2)c1 — lower, -4.04%
- O=C(Nc1ccccc1C#Cc1ccccc1)c1cccnc1 — lower, -1.96%
- COc1ccc(/C=C/c2ccccn2)cc1 — higher, 4.51%
- COc1cc(CN(CCN(C)C)Cc2ccccc2)cc(OC)c1 — lower, 1.08%
- COc1ccc(-c2[nH]nc3c2C(c2cccc(O)c2)N(C)C3=O)cc1 (stereo not drawn) — lower, -1.29%
- Cc1ccc(C)c(OCC(=O)Nc2ccc(S(=O)(=O)Nc3nc(C)cc(C)n3)cc2)c1 — lower, -0.891%
- COC(=O)c1c(N)n(C(C)c2ccccc2)c2nc3ccccc3nc12 (stereo not drawn) — lower, -7.23%
- CCOC(=O)c1cnc2ccc3ccccc3c2c1O — lower, -2.48%
- COc1cccc2c3c(c[n+](C)c12)sc1ccc(F)cc13 — higher, 5.05%
- CCCSc1nnc(NC(=O)C(=O)c2cc(C)n(CCOC)c2C)s1 — lower, -2.84%
- C=CCO/C(O)=C1/C(C)=Nc2nc3ccccc3n2C1c1ccc(OC)cc1OC (stereo not drawn) — higher, 4.86%
- CCC(Oc1ccccc1)C(=O)Nc1ccc(C)cc1C (stereo not drawn) — lower, 2.03%
- O=C(Nc1ccc2oc(-c3cccc(F)c3)nc2c1)c1cccc(F)c1 — higher, 10.6%
- CN(C)/C(Cc1ccccc1)=N\c1ccccc1C#N — lower, -0.13%
- O=c1c(-c2ccccc2)c(C(F)(F)F)oc2c(CN3CCCC3)c(O)ccc12 — lower, -0.473%
- O=C(/C=C/c1ccccc1Cl)NC1CCCCC1 — lower, -3.94%
- C=C(C)COc1ccc2cc(-c3nc4ccccc4s3)c(=O)oc2c1 — higher, 6.22%
- CCCn1nnnc1NCc1ccc2c(c1)OCO2 — lower, -12.7%
- CCN1CC=C2C(C#N)=C(N)C(C#N)(C#N)C(c3ccsc3)C2C1 (stereo not drawn) — lower, 3.25%
- COc1ccc(CN2CCN(Cc3csc4c3CCCC4)CC2)c(OC)c1OC — lower, 0.401%
- COc1ccccc1C(=O)CC1(O)C(=O)Nc2ccc(C)cc21 (stereo not drawn) — lower, 2.44%
- Cc1ccc(NC2CC(O)C(CO)O2)cc1C (stereo not drawn) — lower, -3.77%
- CN(C)CCN(C(=O)Cc1ccccc1)c1nc2c(F)cc(F)cc2s1 — lower, -0.546%
- O=C(NC1CCCCC1C(=O)O)OCC1c2ccccc2-c2ccccc21 (stereo not drawn) — higher, 5.77%
- O=C(NCCc1c[nH]c2ccccc12)/C(=C\c1ccco1)NC(=O)c1ccco1 — lower, -3.06%
- COc1ccc(CC2(NC(=O)c3ccc(Cl)cc3)N=C3C=C(C)C=CN3C2=O)cc1 (stereo not drawn) — lower, -3.85%
- CCC1CCCCN1CCCNC(=O)C1CC(=O)N(C2CCCC2)C1 (stereo not drawn) — lower, 3.79%
- Cc1cc2ccccc2c(=O)n1CC(=O)NCc1ccco1 — lower, 2.73%
- CCCCOc1ccc(S(=O)(=O)Nc2cccc(-c3cn4ccsc4n3)c2)cc1 — lower, 3.05%
- CCOCCCNC(=O)c1ccc(CSc2nc3ccncc3n2Cc2cccc(F)c2)cc1 — higher, 8.62%
- C=CCn1c2ccccc2c2nnc(SCC(=O)Nc3nncs3)nc21 — lower, -3.14%
- COc1cccc(-c2cn3c(n2)sc2cc(C(=O)N4CCN(c5ccccn5)CC4)ccc23)c1 — higher, 25%
- COc1cccc(C2C3=C(O)CCCC3=NC(C)=C2C(=O)Nc2ccc(Br)cn2)c1OC (stereo not drawn) — lower, -0.661%
- N#Cc1c(C(F)(F)F)cc(-c2cccs2)nc1SCC(=O)NC1CC1 — lower, 1.76%
- CCOc1ccc(NC(=O)c2ccccc2OCC)cc1 — lower, -1.07%
- COc1cccc(SC[C@H]2CCCC[C@H]2C(=O)NCC#N)c1 — lower, 0.173%
- Cc1ccc(-n2ncnc2-c2cccs2)cc1Cl — lower, -6.22%
- C/C=C/Cn1c(SCc2cccc(C)c2)nc2c1c(=O)[nH]c(=O)n2C — lower, -2.68%
- Cc1nn(-c2ccccc2)c2c1C(O)CC(C)(C)C2 (stereo not drawn) — higher, 8.96%
- CC(C)CC(NC1=C(Cl)C(=O)c2ccccc2C1=O)C(=O)O (stereo not drawn) — lower, 1.31%
- Cc1cc(C)cc(OCCCCCCc2c(C)n[nH]c2C)c1 — lower, -4.3%
- O=P(O)(/C=C/c1ccccc1)/C=C/c1ccccc1 — lower, -0.0369%
- CC(C)COP(=O)(CN1CCOCC1)OCC(C)C — lower, -4.61%
- Cc1ccc(CNC(=O)CSc2nc3c(c(=O)n2Cc2ccccc2)SCC3)cc1 — lower, -2.26%
- COc1cccc(CNC2CN3CCC2CC3)c1OC (stereo not drawn) — lower, -3.33%
- CC(C)=CC(=O)CC(C)(O)c1ccccc1 (stereo not drawn) — lower, 1.13%
- COC(=O)c1sc2nc(-c3ccccc3)nc(NC(=O)Cc3ccccc3)c2c1C — lower, 1.03%
- O=[N+]([O-])c1ccccc1S(=O)(=O)NCc1ccccc1 — lower, 3.31%
- Cc1ccc(NC(=O)c2ccc(Cl)cc2)cc1O — lower, -2.65%
- CCc1nc2ccc(C(=O)N3CCN(C)CC3)cc2nc1CC — lower, 0.944%
- CCOc1ccccc1NC(=O)c1ccc2c(c1)C(=O)N(CC1CCCO1)C2=O (stereo not drawn) — lower, -0.553%
- COc1ccc(CC2NCCc3cc(OC)c(OC)cc32)cc1OC (stereo not drawn) — lower, 1.64%
- CCn1c2ccccc2c2cc(C3C(C#N)=C(N)OC4=C3C(=O)CC(C)(C)C4)ccc21 (stereo not drawn) — lower, 1.82%
- COc1ccc(OC)c(NS(=O)(=O)c2ccc(NC(C)=O)cc2)c1 — lower, -6.67%
- CCCC(=O)N1CCN(c2ccc(NC(=O)c3ccc(OC)cc3)cc2Cl)CC1 — lower, -2.74%
- COc1ccc2c(CNCCC3=CCCCC3)c(C(=O)O)n(Cc3ccccc3F)c2c1 — lower, -0.232%
- C=CCc1c(C)nc(SC)nc1O — lower, -1.77%
- O=C1c2ccc(Oc3cccc([N+](=O)[O-])c3)cc2C(=O)N1c1cnc(O)nc1O — lower, 3.06%
- CCOC(=O)c1cnn(-c2nnnn2-c2ccccc2)c1-c1cc(F)c(F)c(F)c1F — lower, -1.24%
- N#C/C(=C\c1ccc(Br)cc1)c1nc(C2CC2)cs1 — lower, 3.74%
- CCOc1cccc2sc(N(CCN(C)C)C(=O)c3nc4ccccc4s3)nc12 — lower, -3.88%
- Cc1nnc(NC(=O)c2ccc(-c3ccccc3)cc2)s1 — lower, 1.12%
- N#CCNC(=O)[C@H](CCC(=O)Nc1ccc(Cl)cc1)NC(=O)c1ccc(Br)cc1 — lower, -3.25%
- NC1=C(c2nc3ccccc3[nH]2)C(=O)CN1C1CCCCC1 — lower, -4.82%
- Cc1cccc(-c2noc(CN(C(=O)/C=C/c3ccccc3)C(C)C)n2)c1 — lower, -5.26%
- CCC(Oc1ccccc1)C(=O)O/N=C(\N)c1cccnc1 (stereo not drawn) — lower, -5.11%
- O=C(/C=C/c1cccc([N+](=O)[O-])c1)Nc1ccc(Br)cc1 — lower, 1.35%
- Cc1ccc(NCN2C(=O)C(=O)c3ccccc32)nc1 — higher, 6.86%
- CC(Oc1cccc(Cl)c1)C(=O)Nc1ccc2c(c1)OCCO2 (stereo not drawn) — lower, 2.36%
- Cc1onc(-c2ccccc2Cl)c1C(=O)Nc1ccccc1C(=O)O — lower, 3.93%
- C/C(=C\C(=O)N1CCc2ccccc21)C(=O)O — lower, 0.00178%
- N#Cc1cn(Cc2ccccc2)c2ccccc12 — lower, 3.96%
- O=C(O)c1ccc(-c2nnn(Cc3ccc(F)cc3)n2)cc1 — lower, -3.53%
- O=C1CSC2(C(=O)Nc3ccccc32)N1c1ccc(F)cc1 (stereo not drawn) — lower, -2.8%
- CC(C)(C)NS(=O)(=O)c1ccc(NC(=O)C2CC2)cc1 — lower, -4.14%
- CCOc1ccc(-n2cc(-c3ccccc3)c3c(N4CCCC4)ncnc32)cc1 — lower, 3.99%
- COc1cccc(Nc2nc(-c3ccc(OC)c(F)c3)cs2)c1 — lower, 0.98%
- CCOC(=O)C1CCCCN1Cc1ccc(O)cc1 (stereo not drawn) — lower, -1.93%
- O=c1oc2ccccc2c2c1ncn2-c1ccccc1 — lower, 1.71%
- Cc1sc2c3ccccc3ccc2[n+]1CCC(=O)O — higher, 6.51%
- COc1ccc(OC)c(CNCc2cccn2-c2nnc(N3CCC(C)CC3)s2)c1 — lower, 2.6%
- CCNC(=O)CN(c1cccc(Cl)c1C)S(=O)(=O)c1ccccc1 — lower, -5%
- CC(=O)c1cccc(N2C(=O)C3CCC(C)CC3C2=O)c1 (stereo not drawn) — lower, -0.0938%
- Cc1ccc(OCCSc2nc3c(N)ncnc3[nH]2)c(C(C)C)c1 — lower, 3.79%
- CC(C)(C)c1ccc(S(=O)(=O)N2CCC(N3CCCCC3)CC2)cc1 — higher, 7.17%
- Cc1ccc(S(=O)(=O)N2CCCN(C(=O)C(F)(F)F)C2c2ccccc2)cc1 (stereo not drawn) — lower, -1.52%
- COc1ccc2c(CNCCc3ccccc3)c(C(=O)O)n(Cc3ccccc3)c2c1 — lower, 2.33%
- Cc1ccc(Cl)cc1NC(=O)c1cccc2ccccc12 — lower, 3.03%

— publication PMC6919601, “Identification of Plasmodium dipeptidyl aminopeptidase allosteric inhibitors by high throughput screening” (PLoS ONE, 2019)
